Several values for one entry are separate records, joined by “and”; a condition that tells them apart may be missing. Equal entries are not always repeated.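 Five concentrations, 48 hours, 96-well plates. At the GI50, growth is halved. TGI marks complete inhibition of growth.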 Bounds are passed on as bounds.

As usually defined, the TGI is the concentration at which net growth stops. What is called GI50 is the concentration giving 50% growth inhibition.

This assay relates to NCI-H322M lung. Put plainly: DTP human tumour cell line panel, 48 h.

`COC(=O)C1C(=O)O[C@@H](c2cc(OC)c(OC)cc2OC)C1C(=O)OC` (mixture of isomers) gave a TGI of over 100 µM.

Turning to `CCC1(c2ccc(N3C(=O)c4cc(OC)c(OC)cc4C3=O)cc2)CCC(=O)NC1=O` (stereo not given), the TGI is over 10 µM.

`O=C1C=CC(=O)c2c(O)c3c(c(O)c21)C[C@H](O)[C@H](O)[C@@H]3O` showed a TGI of 14 µM.

Regarding `Nc1nc(/C=C\c2ccccc2)nc(N2CCN(c3ccccc3)CC2)n1`, the GI50 is 27.4 µM and the TGI was 74.3 µM.

The compound `COc1cc(OC)cc(-c2cc(=O)c3cc4c(cc3[nH]2)OCO4)c1` returned a TGI of 31.9 µM.

Take `N/N=C(/Cc1nc2ccc(C(=O)c3ccccc3)cc2[nH]c1=O)C(=O)Nc1ccc([N+](=O)[O-])cc1[N+](=O)[O-]`: the TGI was over 100 µM.

The compound `C/C=C1\CN2CCc3c([nH]c4ccccc34)C2CC1CCO` (stereo not given) registered a TGI of over 100 µM.

With `Cc1cc(-c2cc(O)ccc2Cl)cc2nnc(Nc3ccc(OCCN4CCCC4)cc3)nc12`, the GI50 is 1.74 µM and the TGI came to 3.14 µM.

Turning to `COc1cc(C2c3cc4c(cc3C(OC(=O)C[n+]3ccccc3)C3COC(=O)C23)OCO4)cc(OC)c1OC` (stereo not given), the GI50 was under 0.024 µM and the TGI is over 100 µM.

Compound `CCCCCCCCCOCC(COP(=O)([O-])OCC[N+](C)(C)C)OC` (stereo not given) showed a TGI of over 100 µM.

For the compound `COc1cc(C(=O)c2cnc(-c3cccc4[nH]ccc34)[nH]2)cc(OC)c1OC`, the GI50 is 0.0501 µM and < 0.01 µM; the TGI was over 100 µM.

Compound `CC(=O)OCC1OC(n2c3c(c(-c4ccc(Cl)cc4)c(C#N)c2=S)CCCC3)C(OC(C)=O)C(OC(C)=O)C1OC(C)=O` (stereo not given) displayed a TGI of over 100 µM.

In turn, `O=C(/C=C\c1cccc2ccccc12)c1ccc(Cl)cc1Cl` displayed a TGI of over 100 µM.

Take `CSc1nc2c(c(=O)n1C)N=C(c1ccc([N+](=O)[O-])cc1)CC(c1ccccc1)N2` (stereo not given): the TGI was over 100 µM.

`COc1ccc2c(c1)CCCN1CCc3ccccc3C21` (stereo not given) yielded a TGI of over 100 µM.

Consider `O=[S@]1c2ccc3ccccc3c2N[C@@H]2[C@H]1[C@H]1C=C[C@@H]2C1`, for which the TGI was over 100 µM.

Take `Cc1cn(Cc2ccc(C34CC5CC(CC(C5)C3)C4)c(O)c2)c(=O)[nH]c1=O`: the GI50 is 21.2 µM and the TGI was 45.6 µM.

For the compound `CCOC(=O)c1nc2cc(C(F)(F)F)ccc2nc1Nc1ccc(C(=O)OC)s1`, the TGI is over 100 µM.

The compound `CCOC(=O)C(C#N)C1=CC(=O)C(=O)c2ccc(O)cc21` (stereo not given) gave a TGI of over 100 µM.

Turning to `O=C(NCC1CCCO1)c1ccc(NC2=C(Cl)C(=O)N(Cc3ccccc3)C2=O)cc1` (stereo not given), the GI50 is 16.1 µM and the TGI was 30.1 µM.

For `Cc1cc2nc3ccccc3n2c2nc(N)ccc12`, the TGI was over 100 µM.

Turning to `Cc1ccc2c(=O)cc(-c3ccc(C)s3)[nH]c2n1`, the TGI was over 100 µM.

The compound `O=C(c1ccc(Cl)cc1)C(O)c1ccc(Cl)cc1` (stereo not given) showed a concentration for total growth inhibition (TGI) of over 100 µM.

In the case of `Clc1cccc(-c2nnc(-c3nn(-c4ccccc4)c4nc5ccccc5nc34)o2)c1`, the TGI was over 100 µM.

As for `CCOC(=O)/C=C(/C(=O)OCC)n1ccc(=O)n(Cc2cnnn2COCCOC(C)=O)c1=O`, the TGI is over 100 µM.

In turn, `Cc1cccc2sc(-c3ccc(O)cc3)nc12` yielded a TGI of 30.8 µM.

`Cc1ccc2nc(C(C)C)c(=O)[nH]c2c1` displayed a TGI of over 100 µM.

As to `O=C(c1ccccc1)N1CCC(CC2(c3cc4ccccc4[nH]3)OCCO2)CC1`, the TGI is over 100 µM.

With `c1ccc(CNCCN(CCNCc2ccccn2)Cc2ccc3ccccc3c2)nc1`, the GI50 is 1.48 µM and the TGI amounted to 4.04 µM.

As for `O=C(/C=C/c1cccc([N+](=O)[O-])c1)c1ccc([N+](=O)[O-])cc1`, the TGI is over 100 µM.

In turn, `CCOP(=O)(OCC)C(C(=O)OC)C(=O)C(=O)Nc1cccc(O)c1` (stereo not given) showed a TGI of over 100 µM.

`CCOC(=O)/C(=N/Nc1ccccc1)N1C(=S)C=C(C)NN(C)C1=S` came in with a TGI of over 100 µM.

The compound `O=C(CSCC(=O)N/N=C\c1cccc([N+](=O)[O-])c1)N/N=C\c1cccc([N+](=O)[O-])c1` showed a TGI of over 100 µM.

Turning to `CN1CCN(C(=O)COc2ccc(/C=C3\CC4C5CC=C6CC(Cl)CCC6(C)C5CCC4(C)C3=O)cc2)CC1` (stereo not given), the GI50 was over 100 µM and the TGI was over 100 µM.

On to `S=c1ncc2c([nH]1)C1c3ccccc3C2c2ccccc21`, for which the TGI is over 100 µM.

In the case of `CN(C)N1C(=O)S/C(=C\c2ccc([N+](=O)[O-])cc2)C1=O`, the TGI was over 100 µM.

Regarding `COc1ccc(OC)c(/C=N/N=C(\N)NO)c1`, the TGI is over 100 µM.
